56 molecules from article PMC4336329 (PLoS ONE, 2015) can be followed below.

Molecules are shown by their SMILES. In all, about 310,000 compounds went through this assay and about 2,200 (0.71%) showed an effect of 50% or more. The effect is printed as a negative number. The list shows a part of the results.

For this assay, the target named is human ether-à-go-go-related gene (hERG) potassium channel (human, UniProt Q12809). The experiment in a line: primary screen, population patch clamp on CHO cells stably expressing hERG.
Chain of human ether-à-go-go-related gene (hERG) potassium channel (Q12809 whole entry, looked up): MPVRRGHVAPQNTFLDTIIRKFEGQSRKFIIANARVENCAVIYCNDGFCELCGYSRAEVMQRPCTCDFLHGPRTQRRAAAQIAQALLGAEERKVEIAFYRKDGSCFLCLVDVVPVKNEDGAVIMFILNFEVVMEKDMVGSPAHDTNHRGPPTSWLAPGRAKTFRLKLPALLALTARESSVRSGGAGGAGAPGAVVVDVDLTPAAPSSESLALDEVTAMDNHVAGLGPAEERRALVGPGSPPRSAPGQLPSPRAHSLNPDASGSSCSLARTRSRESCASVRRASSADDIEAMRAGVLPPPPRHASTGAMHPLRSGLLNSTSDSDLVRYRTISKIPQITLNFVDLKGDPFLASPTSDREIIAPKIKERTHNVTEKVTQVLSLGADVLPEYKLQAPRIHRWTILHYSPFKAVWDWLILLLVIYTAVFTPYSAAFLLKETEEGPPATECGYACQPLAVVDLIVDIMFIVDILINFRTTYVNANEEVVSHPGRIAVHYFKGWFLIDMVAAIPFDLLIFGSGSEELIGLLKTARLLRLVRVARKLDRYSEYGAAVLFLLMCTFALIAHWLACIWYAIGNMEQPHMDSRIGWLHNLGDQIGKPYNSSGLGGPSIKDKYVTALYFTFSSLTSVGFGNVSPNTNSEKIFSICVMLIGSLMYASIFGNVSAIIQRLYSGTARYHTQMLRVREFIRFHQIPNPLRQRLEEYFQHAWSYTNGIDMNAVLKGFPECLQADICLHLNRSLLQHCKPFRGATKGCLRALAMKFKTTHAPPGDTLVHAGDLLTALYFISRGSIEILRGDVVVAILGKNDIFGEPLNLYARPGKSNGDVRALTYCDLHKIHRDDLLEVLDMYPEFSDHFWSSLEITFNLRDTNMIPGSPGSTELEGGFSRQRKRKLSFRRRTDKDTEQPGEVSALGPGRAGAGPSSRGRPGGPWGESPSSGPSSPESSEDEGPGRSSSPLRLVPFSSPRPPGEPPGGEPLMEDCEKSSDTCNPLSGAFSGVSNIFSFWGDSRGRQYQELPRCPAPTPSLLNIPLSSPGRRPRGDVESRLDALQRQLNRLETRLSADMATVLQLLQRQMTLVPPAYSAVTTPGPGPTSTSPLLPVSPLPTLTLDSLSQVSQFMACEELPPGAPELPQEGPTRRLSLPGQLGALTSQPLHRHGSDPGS
Regarding `C(=N\Nc1nc2ccccc2[nH]1)/c1ccc2c(c1)OCCO2`, the “hERG current change (%, negative = inhibition) at 1uM” value worked out at 10.5%.

For the molecule `COc1ccc(Cl)cc1NC(=S)N1CCN(C(=O)C2CCCO2)CC1` (centres unmarked), the “hERG current change (%, negative = inhibition) at 1uM” value is given as 14.3%.

For `CSc1cc(-c2ccccc2)n(Cc2c(Cl)cccc2Cl)c(=O)c1C#N`, the “hERG current change (%, negative = inhibition) at 1uM” value was determined as 9.64%. Then `O=C(Nc1cccc(Cl)c1)OCCOc1ccccc1`, with 17.4%; and `CCOC(=O)c1nnn(-c2nonc2N)c1-c1ccc(F)cc1`, with 13.5%. For `Cc1cccc(NC(=S)N2CCC(N(C)CC3CCCO3)CC2)c1C` (centres unmarked) the value was -3.88%; for `Cc1nn(-c2ccc(C(=O)N3CCN(S(=O)(=O)c4ccccc4C(F)(F)F)CC3)cc2)c(C)c1Cl`, -6.83%; for `S=C(NCc1ccccc1)NC1CCSc2ccccc21` (centres unmarked), 15.8%. Then `Cc1cc(NN)nc(Cc2ccccc2)n1`, with 10.1%. Consider `Cc1cc(OCC(O)CN2CCc3ccccc3C2)cc(C(C)C)c1.Cl` (centres unmarked), for which the “hERG current change (%, negative = inhibition) at 1uM” value is -32%. As to `O=C(NCC1CCCO1)c1ccc2c(=O)n(CCc3ccccc3)c(=O)[nH]c2c1` (centres unmarked), the “hERG current change (%, negative = inhibition) at 1uM” value turned out to be 1.47%. Then `Cc1c(NC(=O)c2cc3nc(-c4ccc(Cl)cc4)cc(C(F)(F)F)n3n2)c(=O)n(-c2ccccc2)n1C`, with -4.1%; and `CCCCSCCCNC(=O)CS(=O)Cc1nc(-c2cccc(C)c2)oc1C` (centres unmarked), with -2.44%; and `CCN1/C(=C/C(C)=O)Sc2ccc(OC)cc21`, with 0.528%. For `CCOC(=O)C1(Cc2cccc(OC)c2)CCN(Cc2csc(C(C)=O)c2)CC1`, the “hERG current change (%, negative = inhibition) at 1uM” value is listed as -0.373%.

As to `C/C(=N/Oc1nc(C)cc(C)n1)c1ccc(Br)cc1`, the “hERG current change (%, negative = inhibition) at 1uM” value is recorded as 7.09%. For `O=C(COC(=O)/C=C/c1ccc(OC(F)F)cc1)NC1CCCCC1` the value was 11.2%; for `Cc1csc(SCC(=O)Nc2cccc(C)c2C)n1`, 2.96%; for `COc1ccc(NS(=O)(=O)c2ccc(C)c(C(=O)NCCCN3CCCC3=O)c2)cc1`, 11.1%. For `CCCCn1c(N)c(N(CC(C)C)C(=O)CSc2nnc(-c3ccc(Cl)cc3)o2)c(=O)[nH]c1=O` the value was 13.9%; for `Cc1cccc(NC(=O)CSc2nc3nc(C)cc(C)c3c(=O)[nH]2)c1`, 11.3%.

With `CCOC(=O)c1ccc(NC(=S)Nc2ccc(C)cc2)cc1`, the “hERG current change (%, negative = inhibition) at 1uM” value was found to be 15.6%. Then `COc1ccc(C(=O)NC(C)CCc2ccccc2)c(O)c1` (centres unmarked), with 11.3%; and `NS(=O)(=O)c1cccc(NC(=O)c2cc(=O)c3ccccc3o2)c1`, with 12.3%; and `CCCCn1c(N)nc2ccccc21.Cl`, with 9.74%.

`CC(=O)OCC1OC(OC(C)=O)C(NC(=O)Cc2ccccc2)C(OC(C)=O)C1OC(C)=O` (centres unmarked): the “hERG current change (%, negative = inhibition) at 1uM” value came to 6.06%.

For the molecule `Cn1cnnc1SCC(=O)c1ccc2c(c1)CCCC2`, the “hERG current change (%, negative = inhibition) at 1uM” value is 4.38%. For `CCOC(=O)CS(=O)(=O)c1ccccc1` the value was 9.04%; for `Cc1ccc(C(=O)NCCSc2ccc(Cl)cc2)cc1S(=O)(=O)Nc1ccccc1`, 15.5%.

As to `CCOc1ccccc1OCCCNCc1ccco1.O=C(O)C(=O)O`, the “hERG current change (%, negative = inhibition) at 1uM” value is reported as 8.14%. For `Cc1ccc(CN2CCSc3ccc(C(=O)NC4CCN(Cc5ccccc5)CC4)cc32)cc1` the value was 9.23%. For `O=C(/C=C/c1cccs1)NC(=S)NNC(=O)c1ccccc1O` the value was 21.8%; for `O=C(Cc1ccc(Cl)cc1)NCC(=O)N1CCCCC1`, 5.51%; for `Cc1cc(C)c(S(=O)(=O)c2ccccc2)c(OC(=O)c2c(F)cccc2F)n1`, -2.45%. Then `CC(=O)c1ccc(NC(=O)C2CCCN2S(=O)(=O)c2ccc(C)cc2)cc1` (centres unmarked), with 7.05%; and `O=C(CN1C(=O)c2ccccc2S1(=O)=O)N1CCN(c2ccccc2F)CC1`, with 7.97%. Turning to `O=C(C1CCC(=O)N1C1CCCCC1)N1CCC2(CC1)OCCO2` (centres unmarked), the “hERG current change (%, negative = inhibition) at 1uM” value turned out to be 13.2%.

As to `CC1(C)CC(=O)/C(=C(\O)c2ccccc2)C(=NCCO)C1`, the “hERG current change (%, negative = inhibition) at 1uM” value was determined as 11.9%.

Consider `CC(=O)c1ccc(S(=O)(=O)NC2CC(=O)N(c3ccc(Cl)cc3)C2)cc1` (centres unmarked), for which the “hERG current change (%, negative = inhibition) at 1uM” value turned out to be 0.55%. Consider `CCOc1cc(/C=N/NC(=O)C(=O)NC2CC2)cc(Br)c1O`, for which the “hERG current change (%, negative = inhibition) at 1uM” value is given as 10.4%.

For `Cc1ccsc1C(=O)N(c1nc2ccccc2s1)c1c(C)cccc1C`, the “hERG current change (%, negative = inhibition) at 1uM” value amounted to 23.7%. In the case of `CCOC(=O)N1CCN(C(=O)c2cc3cc(Br)ccc3oc2=O)CC1`, the “hERG current change (%, negative = inhibition) at 1uM” value was -7.29%. For `Cc1ccc(C(=O)c2c3ccc([N+](=O)[O-])cc3[n+]([O-])n2CCC(N)=O)cc1` the value was -10.2%; for `O=C(Cn1c(=O)[nH]c2sc3c(c2c1=O)CCCC3)NCC1CCCO1` (centres unmarked), 13.4%. Then `Cc1nc(-c2ccc(Cl)cc2)sc1C1(C)CC(c2ccccc2Br)=NO1` (centres unmarked), with 17.2%; and `O=C(Nc1c(Cl)cc(Cl)cc1-c1nc2ccccc2s1)c1ccc(Br)o1`, with 3.08%; and `COc1ccc(OC)c(/C=C/C(=O)N2CCCc3ccccc32)c1`, with 13.6%. Then `Cc1ccccc1-n1c(=O)c2c(n3cnnc13)-c1ccccc1CC21CCCCC1`, with 7.92%; and `CCC(C)(C(=O)NC1CCCC1)N(Cc1ccco1)C(=O)c1ccccn1` (centres unmarked), with 2.89%. With `COc1ccc(NC(=O)CN(C)C(=O)CCSc2ccc(C)cc2)cc1`, the “hERG current change (%, negative = inhibition) at 1uM” value stood at 2.77%. Turning to `Cc1nc(-c2cccc(Br)c2)ccc1C(=O)O`, the “hERG current change (%, negative = inhibition) at 1uM” value worked out at 13%.

For the molecule `Cn1c(CCC(=O)OCC(=O)NCc2ccc3c(c2)OCO3)nc(=O)c2ccccc21`, the “hERG current change (%, negative = inhibition) at 1uM” value amounted to 16.2%. For `COc1ccc(C(CNC(=O)c2cccc(S(=O)(=O)Nc3ccccc3OC)c2)N2CCCC2)cc1` (centres unmarked) the value was -4.37%. For `C[C@H](NC(=O)N1CCn2c1nc1ccccc12)C(=O)NCCc1ccccc1` the value was 17.4%; for `COc1ccc(-c2cc3ccc(OCC(N)=O)cc3oc2=O)cc1OC`, 11.5%; for `COc1ccc2nc3c(cc2c1)c(NC(=O)CC(C)C)nn3CC(C)C`, 14.7%.
